Measured values from PubChem BioAssay AID463173 (ICCB-Longwood Screening Facility, Harvard Medical School, 2010).
About 1,700 (3.3%) of roughly 52,000 compounds were called active. Rule as the data show it: active = survival mostly below about 52% (no sharp cut-off); inactive = mostly above about 56%. The list shows a part of the results.

Tested on: Wild type
Assay: S. aureus survival, RN4220 and DeltatarO strains – OD600, teichoic acid synthesis inhibitors, primary screen (AID 463173)
Conditions: S. aureus RN4220 wild type/DeltatarO growth, OD600, 18 h, hits give low values, screened at 18.75 µg/mL (by protocol)

Row | Compound | survival
1 | CC(=O)Nc1ccc(S(=O)(=O)NC2(C(F)(F)F)C(=O)Nc3c2c(=O)[nH]c(=O)n3-c2cccc(Cl)c2)cc1 (centres undefined) | inactive: 67%
2 | CCOC(=O)c1cnc2cc(C(F)(F)F)ccc2c1Nc1ccc(F)cc1F | active: -12%
3 | Cc1cccc(-c2nc(CN3CCCC(C(=O)N4CCN(c5cc(Cl)ccc5C)CC4)C3)c(C)o2)c1 (centres undefined) | inactive: 75%
4 | O=C(c1ccc(F)cc1)c1cn(Cc2ccccc2F)c2cc3c(cc2c1=O)OCCO3 | inactive: 70%
5 | Oc1ccc(Cl)cc1C1=Nc2ccccc2N=C(c2ccccc2)C1 | inactive: 140%
6 | Cc1ccc(C(=O)C(C)OC(=O)C2CC(=O)N(C3CCCCC3)C2)cc1 (centres undefined) | inactive: 108%
7 | Cc1ccc(CSc2nc3cccnc3n2Cc2ccc(C(=O)NCc3ccco3)cc2)cc1 | inactive: 84%
8 | Cc1ccc(-c2nc3c(c(SCc4ccc(Br)cc4)n2)Cc2c(CO)cnc(C)c2O3)cc1 | inactive: 81%
9 | CSc1cccc(NC(=O)c2cnn(-c3ccc(F)cc3)c2-n2cccc2)c1 | inactive: 91%
10 | O=C(Nc1ccccc1)NC1CC2CCC(C1)N2Cc1nnnn1Cc1ccc2c(c1)OCO2 (centres undefined) | inactive: 79%
11 | O=C(CSc1nc2c([nH]c3ccccc32)c(=O)n1-c1ccc(Cl)cc1)N1CCc2ccccc21 | inactive: 93%
12 | O=C(CSc1nc2ccccc2nc1Cc1ccc(Cl)cc1)Nc1ccc2c(c1)OCO2 | inactive: 70%
13 | Cc1ccc2c(=O)cc(C(=O)Nc3ccc(S(=O)(=O)N(C)c4ccccc4)cc3)oc2c1C | inactive: 87%
14 | COc1ccc(CCNC(=O)CCc2c(C)c3cc4c(C)c(C)oc4cc3oc2=O)cc1OC | inactive: 113%
15 | O=C(Cn1ncn2c(cc3sccc32)c1=O)NCCc1ccccc1 | inactive: 85%
16 | CCOC(=O)c1ccc(NC2=CC(c3ccc(OCC)cc3)N(c3ccc(C(=O)OCC)cc3)C2=O)cc1 (centres undefined) | inactive: 76%
17 | CCn1cc(C(=O)NCC(C)C)c(=O)c2cc(F)c(N3CCN(C(=O)c4ccco4)CC3)cc21 | inactive: 107%
18 | CCOC(=O)c1cnc2cc(C(F)(F)F)ccc2c1Nc1cc(C)ccc1OC | inactive: 67%
19 | Cc1ccc(-c2nc(CCNC(=O)c3ccc(C)c(C)c3)cs2)cc1 | inactive: 85%
20 | COc1ccc(-c2noc(CN(C)S(=O)(=O)c3c(C)cc(C)cc3C)n2)cc1OC | inactive: 78%
21 | CCC(C(=O)Nc1cccc(Cl)c1C)n1nc(C)c2sc3ccccc3c2c1=O (centres undefined) | inactive: 84%
22 | COc1ccc(C)cc1NC(=O)c1ccc(NS(=O)(=O)c2c(C)noc2C)cc1 | inactive: 85%
23 | Cc1[nH]n(-c2ccccc2)c(=O)c1/C=N/NC(=O)c1ccccc1 | inactive: 90%
24 | CC(=O)N1c2ccccc2C(=O)C1N1CCN(c2ccccc2F)CC1 (centres undefined) | inactive: 72%
25 | COc1ccccc1-c1nc2n(n1)C(c1ccccc1Cl)C(C(=O)Nc1cccnc1)=C(C)N2 (centres undefined) | inactive: 83%
26 | CCCCn1cc(S(=O)(=O)c2ccc(C)cc2)c(=O)c2cc(F)c(N3CCCCC3)cc21 | inactive: 138%
27 | CCOc1ccccc1NC(=O)CSc1nnc2[nH]c(=O)cc(C)n12 | inactive: 146%

Row | Compound | survival
28 | Cc1cc(O)c(C(c2ccccc2)N2CCCCC2)c(=O)n1Cc1ccco1 (centres undefined) | inactive: 77%
29 | CC(C)(C)OC(=O)N1CCC(c2c(C(=O)NCc3ccccc3)cnn2-c2cccc(F)c2)CC1 | inactive: 120%
30 | Nc1ncnc2c1c1nc3ccccc3nc1n2CCc1ccccc1 | inactive: 87%
31 | COCCCNC(=O)C1CCN(Cc2cc3ccccc3n2Cc2ccccc2C)CC1 | inactive: 78%
32 | Cc1oc(-c2ccc(Cl)cc2)nc1CN1CCCC(C(=O)NCCc2ccc(Cl)cc2)C1 (centres undefined) | inactive: 86%
33 | CCSc1nn(CC(=O)Nc2cccc(CC)c2)c(N)c1S(=O)(=O)c1ccccc1 | inactive: 95%
34 | Cc1ccc(S(=O)(=O)c2c(O)cc(C)c(NS(=O)(=O)c3ccc(Br)cc3)c2C)cc1 | active: -1%
35 | COc1ccc(NC(=O)c2c(NCc3cccs3)sc3c2CCC(C)C3)c(OC)c1 (centres undefined) | inactive: 66%
36 | O=C(CSc1nnc(-c2ccccc2Cl)o1)N1CCCc2ccccc21 | inactive: 35%
37 | Cc1nn(C)c2c1c(C(F)(F)F)cc(=O)n2C(C)C(=O)Nc1ccccc1F (centres undefined) | inactive: 89%
38 | CCOc1ccc(C(=O)c2cn(CC(=O)Nc3ccc(Cl)cc3)c3cc4c(cc3c2=O)OCO4)cc1 | inactive: 134%
39 | COc1ccc(-c2nnc(SCC(=O)Nc3cccc(C(F)(F)F)c3)s2)cc1 | inactive: 99%
40 | COc1ccc(S(=O)(=O)NCC(c2cccs2)S(=O)(=O)c2ccccc2)cc1OC (centres undefined) | inactive: 79%
41 | Cc1c(C(=O)N(Cc2ccccc2F)C2CCS(=O)(=O)C2)oc2ccccc12 (centres undefined) | inactive: 83%
42 | Cc1cc(NNC(=S)S)nc(N)n1 | inactive: 103%
43 | CC(=O)N1CCc2cc(Br)cc(S(=O)(=O)CCC(=O)N3CCN(c4ccc(F)cc4)CC3)c21 | inactive: 80%
44 | CCOc1ccc(/C=C(\C#N)C(=O)NCc2ccco2)cc1OC | inactive: 103%
45 | Cc1ccc(CN2CCC(CNC(=O)c3cnn(-c4ccccc4Cl)c3C3CCN(C(=O)OC(C)(C)C)CC3)CC2)cc1 | inactive: 110%
46 | COc1cc(/C=C/c2nc(C#N)c(N3CCN(C)CC3)o2)cc(OC)c1OC | inactive: 84%
47 | CN(C(=O)c1ccc2c(c1)N(Cc1cccc(Cl)c1)C(=O)c1ccccc1S2(=O)=O)C1CCCCC1 | inactive: 59%
48 | COc1cccc(NS(=O)(=O)c2ccc3c(c2)n(C)c(=O)n3C)c1 | inactive: 81%
49 | Cc1c(-c2nc(-c3ccccc3)no2)nnn1-c1ccc(F)c(Cl)c1 | inactive: 73%
50 | CCc1ccc(NC(=O)Cn2c(=O)n(-c3ccc(Cl)c(Cl)c3)c(=O)c3c(C)c(C)sc32)cc1 | inactive: 92%
51 | COc1ccc(Cl)c2sc(NC(=O)c3ccc(S(=O)(=O)N4CCOCC4)cc3)nc12 | inactive: 73%
52 | COCCNC(=O)c1cnc2sc(N3CCCCC3)nn2c1=O | inactive: 71%
53 | CSc1cccc(NC(=O)C2CCN(c3nc4ccccc4[nH]3)CC2)c1 | inactive: 78%
54 | Cc1ccc(Cn2c(SCc3ccc(C(=O)NC4CCCCC4)cc3)nc3ccncc32)cc1 | inactive: 75%
